Test [1] relates to HSkMC (human skeletal muscle cells). As to the kind of experiment: cytotoxicity call (relative viability < 0.9). Conditions: 10 µM.
The test system of test [2] is S. aureus RN4220. As to the kind of experiment: growth inhibition call (relative growth <= 0.2). The settings on record: 50 µM.

This passage reports cytotoxicity call and growth inhibition call results from the antibiotic and cytotoxicity screens of Wong et al. (2023).

The other results are listed elsewhere or left out.

With `C[C@@H]1CN([C@@H](C)CO)S(=O)(=O)c2ccc(C#Cc3ccc(F)cc3)cc2O[C@@H]1CN(C)S(=O)(=O)c1ccc(F)cc1`, in test [1], the cytotoxicity call was “inactive”. Besides, the growth inhibition call in test [2] was “inactive”.

Regarding `C[C@H]1CCCCO[C@H](CN(C)S(=O)(=O)c2ccc(Cl)cc2)[C@@H](C)CN([C@@H](C)CO)C(=O)c2cc(NC(=O)Nc3ccc(F)cc3)ccc2O1`, the cytotoxicity call in test [1] is “inactive”. Moreover, the growth inhibition call in test [2] is “inactive”.

Take `C[C@@H]1CCCCO[C@@H](CN(C)CC2CCCCC2)[C@@H](C)CN([C@H](C)CO)C(=O)c2cc(NC(=O)C3CCCCC3)ccc2O1`: the cytotoxicity call in test [1] was “inactive”. Besides, in test [2], the growth inhibition call was “inactive”.

On to `C[C@@H]1CN([C@H](C)CO)C(=O)c2cc(NS(=O)(=O)c3cccs3)ccc2O[C@@H]1CN(C)C(=O)Nc1cccc2ccccc12`, for which the cytotoxicity call in test [1] was “inactive”. Also, in test [2], the growth inhibition call was “inactive”.

For the compound `CC(N)(Cc1ccc(O)c(O)c1)C(=O)O` (stereo not drawn), the cytotoxicity call in test [1] was “inactive”. Also, the growth inhibition call in test [2] is “inactive”.

As for `COc1ccc(C(=O)NC(CO)(CO)CO)cc1OC`, in test [1], the cytotoxicity call is “inactive”. Moreover, the growth inhibition call in test [2] was “inactive”.

With `C[C@@H]1CN([C@@H](C)CO)C(=O)c2cc(NC(=O)CCCN(C)C)ccc2O[C@H]1CN(C)C(=O)Nc1ccc2c(c1)OCO2`, the cytotoxicity call in test [1] was “inactive”. In addition, the growth inhibition call in test [2] is “inactive”.

`CN(C)C1CN(S(=O)(=O)CCC2CC2)C1`: the cytotoxicity call in test [1] is “inactive”. Moreover, the growth inhibition call in test [2] is “inactive”.

In the case of `C[C@@H]1CN([C@H](C)CO)C(=O)c2cc(NC(=O)Nc3ccccc3)ccc2O[C@@H](C)CCCCO[C@@H]1CN(C)C(=O)Cc1ccccc1`, in test [1], the cytotoxicity call is “inactive”. In addition, the growth inhibition call in test [2] is “inactive”.

On to `COc1ccc(S(=O)(=O)N(C)C[C@H]2Oc3ccc(NS(=O)(=O)c4cn(C)cn4)cc3CC(=O)N([C@H](C)CO)C[C@H]2C)cc1`, for which the cytotoxicity call in test [1] is “inactive”. Moreover, the growth inhibition call in test [2] was “inactive”.

As for `C[C@H]1CN([C@@H](C)CO)C(=O)c2cccc(NC(=O)Nc3ccc4c(c3)OCO4)c2O[C@H]1CN(C)Cc1ccc(C(F)(F)F)cc1`, the cytotoxicity call in test [1] was “inactive”. Further, in test [2], the growth inhibition call was “inactive”.

On to `Cc1noc(C)c1NC(=O)Nc1ccc2c(c1)C(=O)N([C@@H](C)CO)C[C@H](C)[C@@H](CN(C)C(=O)Nc1ccccc1)OCCCC[C@H](C)O2`, for which, in test [1], the cytotoxicity call was “inactive”. The growth inhibition call in test [2] is “inactive”.

As for `NNC(=O)[C@@H](N)Cc1ccccc1`, the cytotoxicity call in test [1] is “inactive”. Further, the growth inhibition call in test [2] was “inactive”.

On to `Cc1noc(C)c1NC(=O)N(C)C[C@H]1OCCCC[C@@H](C)Oc2ccc(NC(=O)Nc3ccc(C(F)(F)F)cc3)cc2C(=O)N([C@H](C)CO)C[C@@H]1C`, for which the cytotoxicity call in test [1] was “inactive”. Further, the growth inhibition call in test [2] is “inactive”.

For `NC(=O)NS(=O)(=O)c1ccc(N)cc1`, the cytotoxicity call in test [1] was “inactive”. Further, the growth inhibition call in test [2] is “inactive”.

For `COCCOC(=O)N1C(=O)[C@@]2(c3cc(C#Cc4ccc(OC)cc4)ccc31)[C@H](c1ccccc1OCCO)N1[C@H](c3ccccc3)[C@H](c3ccccc3)OC(=O)[C@H]1[C@@H]2C(=O)NC[C@H](O)c1ccccc1`, the cytotoxicity call in test [1] was “inactive”. The growth inhibition call in test [2] was “inactive”.

For the compound `CN1C(=O)c2cc(NC(=O)Nc3ccccc3F)ccc2OC[C@H]2O[C@@H](CC(=O)NCc3ccc(-c4ccccc4)cc3)CC[C@@H]21`, in test [1], the cytotoxicity call was “inactive”. Moreover, in test [2], the growth inhibition call is “inactive”.

As to `O=C(C[C@H]1C[C@@H]2c3cc(NC(=O)c4ccc5c(c4)OCO5)ccc3O[C@@H]2[C@H](CO)O1)NCc1ccc(Oc2ccccc2)cc1`, the cytotoxicity call in test [1] is “inactive”. The growth inhibition call in test [2] was “inactive”.

For the compound `C[C@H](CO)N1C[C@H](C)[C@H](CN(C)Cc2ccc(C(F)(F)F)cc2)OCc2ccccc2-c2c(n(C)c3ccccc23)C1=O`, the cytotoxicity call in test [1] is “inactive”. For the same compound, the growth inhibition call in test [2] is “inactive”.

In the case of `COc1ccc(CN(C)C[C@H]2OCCCC[C@H](C)Oc3ccc(NC(=O)NC4CCCCC4)cc3C(=O)N([C@@H](C)CO)C[C@@H]2C)cc1`, in test [1], the cytotoxicity call was “inactive”. Also, the growth inhibition call in test [2] was “inactive”.

`C[C@@H]1CN([C@@H](C)CO)C(=O)c2cc(NS(C)(=O)=O)ccc2O[C@@H]1CN(C)Cc1ccc(C(=O)O)cc1`: in test [1], the cytotoxicity call was “inactive”. In addition, in test [2], the growth inhibition call was “inactive”.

Regarding `CN(C)CC(=O)N[C@@H]1CC[C@H](CCNC(=O)C2CCC2)O[C@H]1CO`, in test [1], the cytotoxicity call is “inactive”. Moreover, the growth inhibition call in test [2] was “inactive”.

Regarding `COCC#Cc1ccc2c(c1)O[C@@H](CN(C)C(=O)c1ccccc1F)[C@@H](C)CN([C@@H](C)CO)S2(=O)=O`, the cytotoxicity call in test [1] was “inactive”. The growth inhibition call in test [2] was “inactive”.

With `COc1ccc(S(=O)(=O)Nc2ccc3c(c2)C(=O)N([C@@H](C)CO)C[C@H](C)[C@H](CN(C)Cc2ccc4c(c2)OCO4)OCCCC[C@@H](C)O3)cc1`, in test [1], the cytotoxicity call is “inactive”. Besides, the growth inhibition call in test [2] is “inactive”.

Take `C[C@@H]1ON(c2ccc(I)cc2)[C@H](c2ccc(OC(=O)OC(C)(C)C)cc2)[C@H]1C(=O)N1C(=O)OC[C@H]1Cc1ccccc1`: the cytotoxicity call in test [1] was “inactive”. Moreover, the growth inhibition call in test [2] was “inactive”.

With `O=C(C[C@H]1C=C[C@H](NC(=O)C2CC2)[C@H](CO)O1)NCCCN1CCOCC1`, in test [1], the cytotoxicity call was “inactive”. The growth inhibition call in test [2] was “inactive”.

Take `O=C(C[C@@H]1CC[C@H](NC(=O)CN2CCOCC2)[C@H](CO)O1)NCCc1ccccc1`: the cytotoxicity call in test [1] was “inactive”. In addition, the growth inhibition call in test [2] is “inactive”.

With `C[C@H](CO)N1C[C@H](C)[C@H](CN(C)C(=O)Nc2cccc3ccccc23)Oc2ccc(NC(=O)Nc3ccc(C(F)(F)F)cc3)cc2C1=O`, the cytotoxicity call in test [1] was “inactive”. Moreover, the growth inhibition call in test [2] is “inactive”.

Turning to `COc1ccc(CNC(=O)C[C@H]2CC[C@H]3[C@@H](COc4ccc(NC(=O)C5CC5)cc4C(=O)N3C)O2)cc1`, the cytotoxicity call in test [1] was “inactive”. Also, the growth inhibition call in test [2] was “inactive”.
